Results reported in the RNAGym collection of RNA variant scans (doi:10.7554/elife.90254).
The source gives no read counts; variants with many changes may rest on few reads.

B1: OR4K15 (parent)
chain: GUUAACGGUCAUAGGCCAUGGAAACUAGGAGCACCAUUUCGCUGCCAGUGAAGAAAUGAACAAAGAAAAUCUGGGCCAGGCAGGCAUCAAAAGAAAUAGUCUUGCGCUCAACCAGAAAGUCUGUAAUCAUUUUAAGGGUA

Variants of: B1
Test: self-cleavage, relative activity (ratio to wild type); higher = more cleavage; in vitro, sequencing; the parent is a self-cleaving ribozyme
Variant A30G A96G A111U has a self-cleavage of 0.25.
A22U G93A A118G showed a self-cleavage of 1.23.
Variant A18U A116U U131C has a self-cleavage of 0.2.
A24C G84A U108C showed a self-cleavage of 0.
For A22G A63G A67G U103C, the self-cleavage was 1.25.
For U2C U97C U108C, the self-cleavage was 0.02.
U97C U108C A110U showed a self-cleavage of 0.
G7A A18U A114U gave a self-cleavage of 0.07.
Variant G7U U120C U124C has a self-cleavage of 0.41.
For U37C A111G U132C, the self-cleavage was 0.01.
U49C A56G C105U U120G U122C U130C A140U gave a self-cleavage of 0.03.
In the case of A62G A66U A86U A110C, the self-cleavage is reported as 0.52.
For A52G G74A U87C, the self-cleavage was 0.14.
In the case of A5G U103C G104U, the self-cleavage is reported as 0.05.
Variant A33C U87A A111C U120G has a self-cleavage of 0.02.
Work on U37C A55G A116G yielded a self-cleavage of 1.5.
A24G A27G G73A A90G showed a self-cleavage of 0.15.
In the case of U9C A36G A92G, the self-cleavage is reported as 1.29.
A5G U37C U70C U87A U108C showed a self-cleavage of 0.03.
In the case of C34U U49A U87C, the self-cleavage is reported as 1.74.
A33C C45U A95U A96G U132C gave a self-cleavage of 0.44.
In the case of A22G A30U U39C A95G, the self-cleavage is reported as 1.73.
In the case of A13G A22U U122A, the self-cleavage is reported as 1.48.
A5G U37C U87C showed a self-cleavage of 1.01.
For A56C A64G U132C, the self-cleavage was 0.51.
C17U A23G A92G U108C C113U showed a self-cleavage of 0.
Variant U2C A66G C113U has a self-cleavage of 0.06.
A78G U87A A96G gave a self-cleavage of 0.24.
With A23G A51U U72A U108C A126G the self-cleavage was 0.01.
In the case of A24G A30U A82U A89C, the self-cleavage is reported as 0.15.
For A56G A68G U103C U130C, the self-cleavage was 1.41.
A67G A92U U103C gave a self-cleavage of 1.24.
Variant A55C A59U A90G A114G A118G has a self-cleavage of 0.06.
Variant A56G A67G A86G U122C has a self-cleavage of 0.27.
In the case of A24G U49C A62G A91G, the self-cleavage is reported as 0.94.
For A52G U57A A118C U131C, the self-cleavage was 0.59.
With A24G A47U A95G the self-cleavage was 1.07.
Work on A55U G93A A116U yielded a self-cleavage of 0.09.
For A47C G50A A82G A89C, the self-cleavage was 0.27.
A30U U72A A86U A110G showed a self-cleavage of 0.03.
For A59G A82G A140U, the self-cleavage was 0.62.
Variant C42A A51U A55G A90G A92G has a self-cleavage of 0.53.
In the case of A66G A67G C71A, the self-cleavage is reported as 0.32.
In the case of A22U A90G U103C U108A A114G, the self-cleavage is reported as 0.01.
In the case of A36U A51G A116U, the self-cleavage is reported as 0.25.
U9A A33G A96G showed a self-cleavage of 0.75.
A64U A82G U120A A126G U130G gave a self-cleavage of 0.13.
In the case of U2C A22G A116G, the self-cleavage is reported as 0.61.
Work on A52U A66G A111G U127A yielded a self-cleavage of 0.03.
With A11U A18C A55U U70C U124C the self-cleavage was 0.22.
For G28C A95G U132C, the self-cleavage was 2.89.
In the case of U49C A55G U131C, the self-cleavage is reported as 1.55.
A5G A66G U120C U124C showed a self-cleavage of 0.44.
Variant U37C A67G U100C U120A has a self-cleavage of 3.
For U38C U43C U108C A110G A114U, the self-cleavage was 0.01.
With U39C A56G U70C A89G A114G U131C A135G the self-cleavage was 0.04.
A23G A30U A33G U38C G93A showed a self-cleavage of 1.32.
With A60G U70C A111G A135G the self-cleavage was 0.
Work on A22G U26C A62G A78C A135U yielded a self-cleavage of 0.19.
For U12C A36C U49A A91G, the self-cleavage was 0.71.
With A30G A54G A56U G80A A114C the self-cleavage was 0.02.
A5U C35U A67G showed a self-cleavage of 0.68.
For U9C U37C A62G A89G A96C, the self-cleavage was 1.59.
For A30G A56G A67G A86G A92G U131C, the self-cleavage was 0.63.
Variant A33G U72A A82G A90G has a self-cleavage of 0.1.
A52G A62G A68G A117U A129G U133C gave a self-cleavage of 1.22.
For A11C A117U U120A, the self-cleavage was 1.22.
With C17A U103C U108C A126C the self-cleavage was 0.01.
With G41A A64U A94G C128A A134G the self-cleavage was 0.74.
Work on A33G U37G A90G yielded a self-cleavage of 0.41.
Work on A60G A68G U108A yielded a self-cleavage of 0.02.
A64G U70C G84U showed a self-cleavage of 0.47.
Work on A22G U38C U102C yielded a self-cleavage of 2.25.
For C113G U139C A140G, the self-cleavage was 0.04.
For A94C A118G A134G, the self-cleavage was 1.55.
U70C A92G G93A A110G A116G showed a self-cleavage of 0.14.
In the case of A86C U97A U131C, the self-cleavage is reported as 0.51.
Work on U3C A11C G21U A89G yielded a self-cleavage of 0.89.
A24C U100C A116G gave a self-cleavage of 1.79.
U9A A47U A51G A56C A63G A90G gave a self-cleavage of 0.41.
Variant A22G G31A U57C A86G U102C U127C has a self-cleavage of 1.29.
A24G A51U A55G A98G A126G A135G G136A gave a self-cleavage of 0.31.
With U49C A116G A118G the self-cleavage was 0.59.
